From the supplement of paper PMC11417369
± gives the standard deviation of the averaged measurements. This is one part of the list.

These sequences were tested on PfAP2-I AP2 domain 3 (GST-tagged) (assay: gcPBM binding intensity (ln(normalized median fluorescence intensity)); higher = stronger DNA binding).
Summary of the method: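 The binding buffer was 1× PBS containing 1% milk, 0.2 mg/ml BSA, 0.5% salmon testes DNA and 0.03% Triton X-100. In it, GST-tagged P. falciparum DNA-binding domains expressed in E. coli were applied for 1 h to an Agilent 4 × 180k array of primer-extended double-stranded 36-bp intergenic genomic probes plus negative controls. Binding intensity, read with Alexa488 anti-GST antibody and a 488 nm scan, is the highest Masliner-normalised natural-log median intensity across replicate spots of either probe orientation.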

Sequence | gcPBM binding intensity (ln)
TATAAAATATATATCTGTACGTATTTTATTTTTTAT [XGTACX_site6257] | 7.94 ± 0.099
TATAAGCAAAGACACACACACATATAAATATAAATA [CACACA_site7740] | 7.79 ± 0.54
AATTATTCATAAAATGCATGTACATGGTTTAATATT [TGCATGCA_site87] | 7.93 ± 0.59
ATACATGTTTTATGTGCACACAAAGTTGTTATGAGG [CACACA_site4032] | 10.4 ± 0.11
TCGTAAACTTTATGCACACACATATACATATTTCAT [CACACA_site739] | 10.2 ± 0.53
ATAATACACAAGCACACACACACACGGATATTTATA [CACACA_site6714] | 8.21 ± 0.47
ATAATTATATTTTATTCACACATCGTTATATAGTAA [CACACA_site4743] | 7.88 ± 0.49
ATTATGGATACATAAACACACATATATATAAAAAAA [CACACA_site4303] | 7.86 ± 0.71
ACATGATAAATAGTCACACATAAATATAATATATAT [CACACA_site5207] | 7.75 ± 0.54
ACTTTTTTTTTTTTTTTAGATTACATAAATATAAAT [CACACA_negctrl_site139] | 7.93 ± 0.33
TATGTATATTTAAATGCATGTGATTATTTTTGACTT [TGCATGCA_site568] | 7.78 ± 0.45
TTATAAATTTAAAAAGTGCATAATAATAACAAAAAG | 11.2 ± 0.67
TATTTTTATTTTCCTTCACACATTTTTTATATTTTT [CACACA_site5830] | 7.88 ± 0.54
AAAAAAAAAAAAAAAACACACATATAGATTATTGTA [CACACA_site7797] | 8.6 ± 0.5
TTTTAATTTATCGACACACGCATGAATAGAAATTAG [CACACA_site3361] | 7.63 ± 0.57
AACACAATAAAAATTAAAAATGTTAAGTAAATATAA [GTGCAC_negctrl_site60] | 7.45 ± 0.6
TTATAATTTAATAAATGTACATAAATAATATACATA [XGTACX_site7271] | 7.55 ± 0.16
AGACAATATCTTATTTGTACATATGTATTCCTCATA [XGTACX_site5757] | 7.88 ± 0.63
ATGTTATATTTTTTTATACACACTGGGATATATAAA [CACACA_site6244] | 7.93 ± 0.59
TTCATTGTGTTAACGGTGCATATATTTTTTCACCGT [GTGCAC_site9464] | 10.4 ± 0.47
TAAAAATATAAAAAGTGTACAATATATAAATTAATA [XGTACX_site1606] | 7.95 ± 0.5
ATATTAAAAAAATATGCATGCAAATATTATTTTGTA [TGCATGCA_site191] | 7.82 ± 0.59

Sequence | gcPBM binding intensity (ln)
TATTTAATTAATATAATATTAAACGGAAAAGATAAA [TGCATGCA_negctrl_site148] | 7.89 ± 0.59
TTTTTCTTTTTTTTTTTAATAATATATAACAAATTT [CACACA_negctrl_site1724] | 7.59 ± 0.64
AATCAAATTTTCAAGTCGCACCAAACAAAAAAATGA [CACACA_negctrl_site1397] | 8.51 ± 0.26
TGCCATATATATATTAAATACATAATAATGAGCCTA [GTGCAC_negctrl_site10] | 7.63 ± 0.28
ATAAACAAAAAAAAAAAATATATCAATATATATATA [CACACA_negctrl_site299] | 8.98 ± 0.085
AAAATATATAATTTTTAACACACAAAAAAAAAAAAA [CACACA_site9192] | 8.05 ± 0.65
AGTCATAAATTTATTTGTACATATAATATATATATA [XGTACX_site8489] | 8.98 ± 0.057
GTTATACACATATATACACACATATGTAAATATATA [CACACA_site9080] | 7.83 ± 0.35
CTAATATATGTATGCACACACAATATATACATATTT [CACACA_site3360] | 8.68 ± 0.085
GTCCTTACTAATTAATTTTAGGCCATATAGTTTGTC [XGTACX_negctrl_site199] | 8.03 ± 0.47
ATATTACAAATATAATGTACAAAATATAAATATGCA [XGTACX_site8106] | 7.62 ± 0.3
TTATAATCTATACATATATATGTATGTATGTCTCAA [CACACA_negctrl_site1702] | 7.46 ± 0.52
AAATGCGTATATAACGCATGTATAAGAACATTTTTT [TGCATGCA_site225] | 7.59 ± 0.68
ACATCATTTTTATGTACACACACATATACGTTGAAT [CACACA_site5095] | 8.24 ± 0.37
GAAGTATTATTAAAGCTGCACTTTTCTAAAATAAAC [GTGCAC_site9429] | 8.73 ± 0.28
CATTAATTTAATAAATGTACATAAAATATATATTAT [XGTACX_site8085] | 7.89 ± 0.36
TAAAATTTACAACACTGTACTTGAATTTATCTTTAA [XGTACX_site241] | 7.55 ± 0.5
GCAGTATGCGATCAGTGTACGAGTTATTTTATAAAA [XGTACX_site4764] | 7.71 ± 0.39
AAAAAAAAAAAAAAAAGTACAAAAATATATATGCAT [XGTACX_site8392] | 8.44 ± 0.28
TATGCACAGAAACACACACACACAACCAAAAAATAA [CACACA_site5425] | 8.33 ± 0.57
TGTTATATATAAATTTGTACACATAAATATTTTTAC [XGTACX_site5873] | 7.93 ± 0.44
AATAAAAAAAAATGCACACATATATATATATATATA [CACACA_site2421] | 9.67 ± 0.52
